Data published in PMC8550248, “An unexpected role for Dicer as a reader of the unacetylated DNA binding domain of p53 in transcriptional regulation” (Science Advances, 2021).

Biological target: T1, HA-tagged Dicer, from HEK293 (UniProt Q9UPY3 1-1922)
T1 construct: Dicer, full length, residues 1-1922; cDNA from Addgene plasmid 19873, subcloned into pRK5; the length 1922 fits human Dicer; also called purified Dicer; purified recombinant Dicer protein; source: HEK293, transfected
Assay: pull-down; GST-p53 fragments immobilised on GST Bind Resin, incubated with purified Dicer 4 hours at 4°C, washed with BC100 buffer six times; Western blot
Conditions: both partners purified

binding result: binds
B1: GST-p53 […] (domain or fragment)
chain: not shown
